Reference: US20210188986A1

Biological target: combination of recombinant human TNFα and recombinant human OX40L
Test: cell-based or functional assay

% inhibition, Jurkat OX40/TNF-NFκB reporter assay: 100%
B1: ISVD construct […] (VHH)
chain: DVQLVESGGGVVQPGGSLRLSCAASGRTFSSIYAKGWFRQAPGKEREFVAAISRSGRSTSYADSVKGRFTISRDNSKNTVYLQMNSLRPEDTALYYCAAVGGATTVTASEWDYWGQGTLVTVSSGGGGSGGGSEVQLVESGGGVVQPGGSLRLSCAASGRTFSSIYAKGWFRQAPGKEREFVAAISRSGRSTSYADSVKGRFTISRDNSKNTVYLQMNSLRPEDTALYYCAAVGGATTVTASEWDYWGQGTLVTVSSGGGGSGGGS[about 120 residues skipped]GGGGSGGGSEVQLVESGGGVVQPGGSLRLSCAASGFTFRSFGMSWVRQAPGKGPEWVSSISGSGSDTLYADSVKGRFTISRDNSKNTLYLQMNSLRPEDTALYYCTIGGSLSRSSQGTLVTVSSGGGGSGGGSEVQLVESGGGVVQPGGSLRLS[about 80 residues skipped]RGQGTLVKVSSA
